According to the supplement of paper PMC3334620:
The full ranking holds about 33,000 sequences; the median of “E-score (-0.5 to 0.5)” is about -0.016, and the highest 2% start at about 0.32. The list shows a part of the results.

These sequences were tested against T1, Stp1 (UniProt B3LFK1) (assay: PBM E-score (8-mer binding enrichment) (E-score (-0.5 to 0.5)); higher = stronger / more preferred TF binding; most listed sequences are background and not binding sites). Details: protein concentration: 200 nM; construct: GST-full length.
T1 sequence: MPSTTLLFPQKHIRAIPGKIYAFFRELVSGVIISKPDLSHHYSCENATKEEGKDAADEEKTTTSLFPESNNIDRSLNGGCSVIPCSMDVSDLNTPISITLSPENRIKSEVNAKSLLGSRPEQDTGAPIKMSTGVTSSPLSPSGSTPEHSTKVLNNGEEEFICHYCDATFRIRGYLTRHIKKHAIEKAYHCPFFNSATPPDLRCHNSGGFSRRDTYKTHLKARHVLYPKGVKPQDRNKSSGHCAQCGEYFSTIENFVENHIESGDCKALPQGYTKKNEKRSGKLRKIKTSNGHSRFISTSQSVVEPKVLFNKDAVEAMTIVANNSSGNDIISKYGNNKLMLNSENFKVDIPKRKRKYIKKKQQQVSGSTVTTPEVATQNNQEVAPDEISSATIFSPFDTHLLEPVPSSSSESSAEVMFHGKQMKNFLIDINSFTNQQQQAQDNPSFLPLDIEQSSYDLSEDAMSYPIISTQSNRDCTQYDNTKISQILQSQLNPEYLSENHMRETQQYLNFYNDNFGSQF
In short: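 Using PURExpress in vitro transcription/translation, GST-tagged yeast transcription factors were made in full-length or DNA-binding-domain form. These were applied at about 100-200 nM to double-stranded universal all-10-mer Agilent arrays, and bound protein was detected with fluorescent anti-GST. Scans were normalised with masliner before the Universal PBM Analysis Suite assigned E-scores to ungapped eight-base words pooled with their reverse complements.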

Compared with GCTTCCCA, CTATCAAC is higher in “PBM E-score” value: -0.0996 for the first, 0.11 for the second.

Going from TTAATGAA to GTTGACGA, the “PBM E-score” value falls from 0.216 to -0.118.

Going from CACCATAC to ATAAATTA, the “PBM E-score” value rises from -0.0768 to 0.281.

First: ACCAGTCA
Second: CAAATTTG
The “PBM E-score” value of the first is lower: -0.00407 for the first, 0.0919 for the second.

First: TACACCCA
Second: GGCGTTTA
The “PBM E-score” value of the first is lower: -0.231 for the first, 0.337 for the second.

Going from GTTTACTA to CAGTGCAA, the “PBM E-score” value falls from 0.164 to -0.028.

First: GTTTCTAA
Second: CGTATGTC
The “PBM E-score” value of the first is higher: 0.175 for the first, 0.123 for the second.

Going from ACTATCTC to AAGTTAAC, the “PBM E-score” value rises from 0.0706 to 0.125.

First: CCAATCCC
Second: CAACTCTC
The “PBM E-score” value of the first is lower: -0.246 for the first, -0.183 for the second.

Going from GTCTAACA to CGGAACGA, the “PBM E-score” value rises from -0.0907 to 0.0736.

Compared with ATTGAGTC, GTCTACGA is lower in “PBM E-score” value: -0.146 for the first, -0.24 for the second.

First: AGTTGTCC
Second: AAATTGCA
The “PBM E-score” value of the first is lower: -0.143 for the first, -0.024 for the second.

Going from CACGTTCA to CCCGGTTC, the “PBM E-score” value falls from -0.126 to -0.157.

Going from AAACCGCA to GACCCTGA, the “PBM E-score” value falls from -0.0456 to -0.256.

First: TCGGGACA
Second: AGTAGGTG
The “PBM E-score” value of the first is lower: -0.174 for the first, -0.132 for the second.

First: CATCTATC
Second: TGCAGAAA
The “PBM E-score” value of the first is lower: 0.16 for the first, 0.208 for the second.

Going from AGGACAAA to GCGCGATA, the “PBM E-score” value rises from 0.138 to 0.316.

Compared with ATCTTCAC, ACGCTTCA is lower in “PBM E-score” value: 0.0358 for the first, -0.0376 for the second.

Going from CCCTACAG to GATTCAGA, the “PBM E-score” value rises from -0.178 to 0.0318.

Going from CCGGCTTA to AAACCCGT, the “PBM E-score” value rises from -0.24 to 0.106.

First: GACCGCTC
Second: CTCTCCAG
The “PBM E-score” value of the first is lower: -0.203 for the first, -0.168 for the second.

Going from ACGGTGTC to CGATCTGA, the “PBM E-score” value falls from -0.0106 to -0.235.

Going from ACAGCGGC to ACATATGT, the “PBM E-score” value falls from 0.127 to 0.0136.

First: AGCTCCCC
Second: AAGATATT
The “PBM E-score” value of the first is lower: -0.293 for the first, 0.0449 for the second.

Compared with GTATGTTA, GATTAGTA is lower in “PBM E-score” value: 0.0941 for the first, 0.00337 for the second.

Compared with CGACTCGC, ACCTCCGG is lower in “PBM E-score” value: -0.154 for the first, -0.242 for the second.

Going from AGAATCCA to GAGAATTA, the “PBM E-score” value rises from -0.169 to -0.105.

Compared with ACCAGACC, CCAACGAC is higher in “PBM E-score” value: -0.143 for the first, -0.0247 for the second.

Going from ATAACGAC to TAAAACAA, the “PBM E-score” value rises from 0.0628 to 0.157.

Going from GGGGAATA to GATTAATA, the “PBM E-score” value rises from -0.302 to 0.211.

Going from CGATAAAC to GTCTCAGA, the “PBM E-score” value falls from 0.0166 to -0.0609.

Going from GCTTGCCC to GCGTCAGC, the “PBM E-score” value rises from -0.152 to -0.0592.

Going from CGCTATAC to AGGCTACC, the “PBM E-score” value falls from -0.145 to -0.157.

First: ATGTTTTG
Second: CAGTACGG
The “PBM E-score” value of the first is lower: 0.127 for the first, 0.141 for the second.

Going from GATTGGGC to GGAAAACA, the “PBM E-score” value falls from 0.0267 to 0.0206.

Compared with CTCTATCA, ACTGACCT is lower in “PBM E-score” value: -0.129 for the first, -0.181 for the second.

Going from CAAACGTA to GTACCGTA, the “PBM E-score” value falls from 0.131 to 0.0706.

First: GGGGCGAA
Second: AGAGTATC
The “PBM E-score” value of the first is lower: 0.0031 for the first, 0.0961 for the second.

Going from GGATGGCA to GGCTTACA, the “PBM E-score” value falls from 0.246 to 0.0161.

First: TACGTATA
Second: AAGGGACA
The “PBM E-score” value of the first is higher: 0.168 for the first, -0.0629 for the second.

Going from AAAGCAAT to AACACAAC, the “PBM E-score” value falls from 0.175 to 0.12.

First: AAATACCA
Second: GAAGCTAC
The “PBM E-score” value of the first is higher: 0.0187 for the first, -0.12 for the second.

Compared with TGTCCTAA, ACAACTGA is lower in “PBM E-score” value: 0.135 for the first, 0.0794 for the second.

First: ACAACTCT
Second: ACCGGTGA
The “PBM E-score” value of the first is lower: -0.0697 for the first, -0.0475 for the second.

Going from CCCACACG to AGGTTTTG, the “PBM E-score” value falls from 0.131 to -0.0629.

First: CACCCCCG
Second: ATCTACCC
The “PBM E-score” value of the first is lower: -0.233 for the first, -0.129 for the second.

Going from CCATTACG to GCCCTCCA, the “PBM E-score” value rises from -0.0772 to -0.0721.

Going from ACCTCCGA to ATTGTGTG, the “PBM E-score” value rises from -0.308 to -0.0138.

Going from ACTGTGCG to GCCGAGTA, the “PBM E-score” value rises from 0.0487 to 0.0791.

Compared with ATCCAACA, CCTGTATC is higher in “PBM E-score” value: 0.0711 for the first, 0.0768 for the second.

Compared with ATCTAAGC, ATGTTGCG is higher in “PBM E-score” value: -0.0654 for the first, 0.171 for the second.

First: CATACTAG
Second: AGGTACCA
The “PBM E-score” value of the first is higher: -0.103 for the first, -0.236 for the second.

Compared with AGATCAAC, AACGGGGG is lower in “PBM E-score” value: -0.029 for the first, -0.316 for the second.

First: ATGGTGTG
Second: ACTTCCAC
The “PBM E-score” value of the first is lower: -0.0421 for the first, -0.0256 for the second.

Going from GCTTTCAC to ACGAGGCC, the “PBM E-score” value rises from -0.0933 to 0.016.
